Test results taken from the supplement of paper PMC4967469.
Lines with a small IC50 respond at low doses; a fit beyond the top or the lowest dose is shown as a bound at that dose. AUC is the area under the same curve over the 256-fold range up to the top dose, as a fraction; the more sensitive the line, the further below 1. For part of these data: Where the top dose is marked as inferred, it was calculated from the reported fits.

Columns and labels:
Experiment in all cases: Viability of human cancer cell lines after 72 h of drug (GDSC screen)
[1] = compound: O=C(O)CNC(=O)c1c(O)c2ccccc2n(Cc2ccccc2)c1=O [IOX2]; conditions: top dose 0.1 µM; top dose inferred
Method: (§1)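 Human cancer cell lines in 384-well plates, medium with 10% serum, drug for 72 h over a 256-fold dose range (nine 2-fold or five 4-fold steps up to the top dose). Adherent lines were fixed and stained with the nucleic acid dye Syto60, suspension lines read with resazurin; signal relative to control wells, capped at 0 and 100%. One two-parameter sigmoid per drug and line, fitted in a mixed model over all curves with the slope shared within a line.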

[2] = compound: CC[C@H](CO)Nc1nc(NCc2ccccc2)c2ncn(C(C)C)c2n1 [Roscovitine]; conditions: top dose 16 µM; top dose inferred
Method: as §1

[3] = compound: CO[C@@]12[C@H](COC(N)=O)C3=C(C(=O)C(C)=C(N)C3=O)N1C[C@@H]1N[C@@H]12 [Mitomycin C]; conditions: top dose 16 µM
Method: as §1

[4] = compound: COc1cc(Nc2c(C#N)cnc3cc(OCCCN4CCN(C)CC4)c(OC)cc23)c(Cl)cc1Cl [Bosutinib]; conditions: top dose 2 µM
Method: as §1

[5] = compound: Cc1ccc(C(=O)Nc2cccc(C(F)(F)F)c2)cc1Nc1nc(-c2cccnc2)nc2c1cnn2C [NVP-BHG712]; conditions: top dose 10.24 µM; top dose inferred
Method: as §1

[6] = compound: CO[C@@H]1[C@H](N(C)C(=O)c2ccccc2)C[C@H]2O[C@]1(C)n1c3ccccc3c3c4c(c5c6ccccc6n2c5c31)C(=O)NC4 [Midostaurin]; conditions: top dose 0.512 µM; top dose inferred
Method: as §1

Cell Line | AUC [1] | IC50 [1] [nM] | AUC [2] | IC50 [2] [µM] | AUC [3] | IC50 [3] [nM] | AUC [4] | IC50 [4] [nM] | AUC [5] | IC50 [5] [µM] | AUC [6] | IC50 [6] [nM]
HSC-39 (stomach, suspension) | 0.968 | > 100 | 0.98 | > 16 | 0.657 | 2550 | 0.833 | 1050 | 0.991 | > 10.2 | 0.977 | > 512
NCI-H187 (small cell lung carcinoma, suspension) | 0.987 | > 100 | 0.934 | > 16 | 0.492 | 948 | 0.988 | > 2000 | 0.976 | > 10.2 | 0.988 | > 512
SCH (stomach, adherent) | 0.987 | > 100 | 0.975 | > 16 | 0.894 | > 16000 | 0.877 | > 2000 | 0.988 | > 10.2 | 0.988 | > 512
EW-13 (Ewing sarcoma, suspension) | 0.984 | > 100 | 0.974 | > 16 | 0.14 | 63.5 | 0.978 | > 2000 | 0.517 | 0.718 | 0.845 | 432
CP66-MEL (melanoma, adherent) | 0.984 | > 100 | 0.975 | > 16 | 0.4 | 512 | 0.979 | > 2000 | 0.866 | > 10.2 | 0.982 | > 512
ROS-50 (B-cell leukaemia, suspension) | 0.983 | > 100 | 0.913 | > 16 | 0.646 | 2840 | 0.972 | > 2000 | 0.793 | 6.22 | 0.964 | > 512
NCI-H1648 (lung adenocarcinoma, adherent) | 0.984 | > 100 | 0.943 | > 16 | 0.362 | 406 | 0.94 | > 2000 | 0.871 | > 10.2 | 0.879 | > 512
BB65-RCC (kidney, adherent) | 0.966 | > 100 | 0.76 | 6.46 | 0.239 | 154 | 0.845 | 1780 | 0.946 | > 10.2 | 0.894 | > 512
COR-L279 (small cell lung carcinoma, suspension) | 0.99 | > 100 | 0.88 | 13.4 | 0.071 | < 62.5 | 0.991 | > 2000 | 0.971 | > 10.2 | 0.959 | > 512
Raji (Burkitt lymphoma, suspension) | 0.982 | > 100 | 0.881 | 14.9 | 0.548 | 1340 | 0.986 | > 2000 | 0.92 | > 10.2 | 0.988 | > 512
WSU-DLCL2 (B-cell lymphoma, suspension) | 0.307 | 2 | 0.992 | > 16 | 0.178 | 136 | 0.955 | > 2000 | 0.931 | > 10.2 | 0.954 | > 512
SUP-T1 (T-cell lymphoblastic leukaemia, suspension) | 0.99 | > 100 | 0.99 | > 16 | 0.206 | 151 | 0.97 | > 2000 | 0.8 | 4.44 | 0.892 | 506
HCC1187 (breast, suspension) | 0.988 | > 100 | 0.96 | > 16 | 0.672 | 2930 | 0.959 | > 2000 | 0.898 | > 10.2 | 0.928 | > 512
LB2518-MEL (melanoma, adherent) | 0.976 | > 100 | 0.941 | > 16 | 0.413 | 571 | 0.976 | > 2000 | 0.773 | 4.2 | 0.931 | > 512
DG-75 (Burkitt lymphoma, suspension) | 0.985 | > 100 | 0.943 | > 16 | 0.759 | 5650 | 0.827 | 1250 | 0.945 | > 10.2 | 0.984 | > 512
KU812 (chronic myeloid leukaemia, suspension) | 0.987 | > 100 | 0.924 | > 16 | 0.203 | 147 | 0.584 | 208 | 0.142 | 0.0562 | 0.934 | > 512
K5 (thyroid, adherent) | 0.974 | > 100 | 0.919 | > 16 | 0.588 | 1730 | 0.899 | > 2000 | 0.938 | > 10.2 | 0.83 | 302
DMS-79 (small cell lung carcinoma, suspension) | 0.986 | > 100 | 0.956 | > 16 | 0.619 | 2240 | 0.986 | > 2000 | 0.981 | > 10.2 | 0.984 | > 512
NCI-H1876 (small cell lung carcinoma, adherent) | 0.978 | > 100 | 0.96 | > 16 | 0.245 | 182 | 0.987 | > 2000 | 0.879 | > 10.2 | 0.987 | > 512
